Assay results as given in the supplement of paper PMC11876631.
± gives the standard deviation of the averaged measurements. Laboratory Escherichia coli strains with one amino-acid change in an essential protein, pooled on minimal glucose agar with carbenicillin or gentamicin at twice the control MIC (plus kanamycin and chloramphenicol for the plasmids), 48 h. Fold change of barcode share against drug-free plates; higher = less susceptible. Active = above 20 in both replicates (the paper's putatively resistant). '<' = one read or none on drug, '>' = one read or none on a drug-free plate. Shares are relative, so most strains fall below 1 when a few take over. Listed are strains with at least 15 reads on both drug-free plates, and hits; most hits rest on fewer reference reads. Replicate rank correlation about 0.5. Edits are read from barcodes.

B1: hisS L240A (protein)
chain: MAKNIQAIRGMNDYLPGETAIWQRIEGTLKNVLGSYGYSEIRLPIVEQTPLFKRAIGEVTDVVEKEMYTFEDRNGDSLTLRPEGTAGCVRAGIEHGLLYNQEQRLWYIGPMFRHERPQKGRYRQFHQLGCEVFGLQGPDIDAELIMLTARWWRALGISEHVTLELNSIGSLEARANYRDALVAFLEQHKEKLDEDCKRRMYTNPLRVLDSKNPEVQALLNDAPALGDYLDEESREHFAGACKLLESAGIAYTVNQRLVRGLDYYNRTVFEWVTNSLGSQGTVCAGGRYDGLVEQLGGRATPAVGFAMGLERLVLLVQAVNPEFKADPVVDIYLVASGADTQSAAMALAERLRDELPGVKLMTNHGGGNFKKQFARADKWGARVAVVLGESEVANGTAVVKDLRSGEQTAVAQDSVAAHLRTLLG
B2: hisS L240W (protein)
chain: MAKNIQAIRGMNDYLPGETAIWQRIEGTLKNVLGSYGYSEIRLPIVEQTPLFKRAIGEVTDVVEKEMYTFEDRNGDSLTLRPEGTAGCVRAGIEHGLLYNQEQRLWYIGPMFRHERPQKGRYRQFHQLGCEVFGLQGPDIDAELIMLTARWWRALGISEHVTLELNSIGSLEARANYRDALVAFLEQHKEKLDEDCKRRMYTNPLRVLDSKNPEVQALLNDAPALGDYLDEESREHFAGWCKLLESAGIAYTVNQRLVRGLDYYNRTVFEWVTNSLGSQGTVCAGGRYDGLVEQLGGRATPAVGFAMGLERLVLLVQAVNPEFKADPVVDIYLVASGADTQSAAMALAERLRDELPGVKLMTNHGGGNFKKQFARADKWGARVAVVLGESEVANGTAVVKDLRSGEQTAVAQDSVAAHLRTLLG
B3: hisS L240Q (protein)
chain: MAKNIQAIRGMNDYLPGETAIWQRIEGTLKNVLGSYGYSEIRLPIVEQTPLFKRAIGEVTDVVEKEMYTFEDRNGDSLTLRPEGTAGCVRAGIEHGLLYNQEQRLWYIGPMFRHERPQKGRYRQFHQLGCEVFGLQGPDIDAELIMLTARWWRALGISEHVTLELNSIGSLEARANYRDALVAFLEQHKEKLDEDCKRRMYTNPLRVLDSKNPEVQALLNDAPALGDYLDEESREHFAGQCKLLESAGIAYTVNQRLVRGLDYYNRTVFEWVTNSLGSQGTVCAGGRYDGLVEQLGGRATPAVGFAMGLERLVLLVQAVNPEFKADPVVDIYLVASGADTQSAAMALAERLRDELPGVKLMTNHGGGNFKKQFARADKWGARVAVVLGESEVANGTAVVKDLRSGEQTAVAQDSVAAHLRTLLG
B4: argH L339A (protein)
chain: MALWGGRFTQAADQRFKQFNDSLRFDYRLAEQDIVGSVAWSKALVTVGVLTAEEQAQLEEALNVLLEDVRARPQQILESDAEDIHSWVEGKLIDKVGQLGKKLHTGRSRNDQVATDLKLWCKDTVSELLTANRQLQSALVETAQNNQDAVMPGYTHLQRAQPVTFAHWCLAYVEMLARDESRLQDALKRLDVSPLGCGALAGTAYEIDREQLAGWLGFASATRNSLDSVSDRDHVLELLSAAAIGMVHLSRFAEDLIFFNTGEAGFVELSDRVTSGSSLMPQKKNPDALELIRGKCGRVQGALTGMMMTLKGLPLAYNKDMQEDKEGLFDALDTWLDCAHMAALVLDGIQVKRPRCQEAAQQGYANATELADYLVAKGVPFREAHHIVGEAVVEAIRQGKPLEDLPLSELQKFSQVIDEDVYPILSLQSCLDKRAAKGGVSPQQVAQAIAFAQARLG
B5: argH L339W (protein)
chain: MALWGGRFTQAADQRFKQFNDSLRFDYRLAEQDIVGSVAWSKALVTVGVLTAEEQAQLEEALNVLLEDVRARPQQILESDAEDIHSWVEGKLIDKVGQLGKKLHTGRSRNDQVATDLKLWCKDTVSELLTANRQLQSALVETAQNNQDAVMPGYTHLQRAQPVTFAHWCLAYVEMLARDESRLQDALKRLDVSPLGCGALAGTAYEIDREQLAGWLGFASATRNSLDSVSDRDHVLELLSAAAIGMVHLSRFAEDLIFFNTGEAGFVELSDRVTSGSSLMPQKKNPDALELIRGKCGRVQGALTGMMMTLKGLPLAYNKDMQEDKEGLFDALDTWLDCWHMAALVLDGIQVKRPRCQEAAQQGYANATELADYLVAKGVPFREAHHIVGEAVVEAIRQGKPLEDLPLSELQKFSQVIDEDVYPILSLQSCLDKRAAKGGVSPQQVAQAIAFAQARLG
B6: hisI F114W (protein)
chain: MLTEQQRRELDWEKTDGLMPVIVQHAVSGEVLMLGYMNPEALDKTLESGKVTFFSRTKQRLWTKGETSGNFLNVVSIAPDCDNDTLLVLANPIGPTCHKGTSSCFGDTAHQWLWLYQLEQLLAERKSADPETSYTAKLYASGTKRIAQKVGEEGVETALAATVHDRFELTNEASDLMYHLLVLLQDQGLDLTTVIENLRKRHQ

Biological target: Escherichia coli (laboratory strain)
Assay: barcode share on antibiotic plates over drug-free plates; higher = less susceptible
Conditions: antibiotic: carbenicillin; 2× MIC (3.1 µg/mL)
Description: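 A pool of E. coli strains, each edited to carry one amino-acid change in an essential protein, was grown for 48 h on minimal glucose agar with or without antibiotic; strain barcodes were sequenced; mean of two replicates.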

| Protein | fold change of barcode share |
| --- | --- |
| B1 | 0.358 ± 0.095 |
| B2 | 0.412 ± 0.28 |
| B3 | 0.553 ± 0.24 |
| B4 | 1.42 ± 0.66 |
| B5 | 0.999 ± 0.23 |
| B6 | 0.951 ± 0.25 |

Same assay, conditions: antibiotic: gentamicin; 2× MIC (MIC 0.45 µg/mL)

| Protein | fold change of barcode share |
| --- | --- |
| B1 | 0.00368 ± 0.0014 |
| B2 | < 0.00333 |
| B3 | 0.00533 ± 0.0012 |
| B4 | 0.0103 ± 0.0046 |
| B5 | 0.0179 ± 0.0028 |
| B6 | 0.0494 ± 0.055 |
